Reference: the supplement of paper PMC12217912
The list shows a part of the results. Sequences were assembled here from the parent chain. Inactive controls read about 0.05.

B1: TEV protease; numbered along this chain (parent)
chain: MGESLFKGPRDYNPISSSICHLTNESDGHTTSLYGIGFGPFIITNKHLFRRNNGTLVVQSLHGVFKVKDTTTLQQHLVDGRDMIIIRMPKDFPPFPQKLKFREPQREERICLVTTNFQTKSMSSMVSDTSCTFPSGDGIFWKHWIQTKDGQCGSPLVSTRDGFIVGIHSASNFTNTNNYFTSVPKNFMELLTNQEAQQWVSGWRLNADSVLWGGHKVFMVKPEEPFQPVKEATQL

Variants of: B1
Assay: raw area under fraction-flipped curve 0-4 h after induction (AUC4h, not background-subtracted), DNA-recorder readout of cleavage of the substrate (dimensionless); higher = more cleavage of the substrate by the protease variant
Conditions: temperature: 34 °C; time window: 0-4 h after rhamnose induction
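Also: Bxb1 expression induced with 0.2% (w/v) L-rhamnose at OD600 near 0.5, cultures sampled hourly, flipped fraction per protease–substrate barcode pair counted by paired-end Illumina sequencing.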

Variant | area with substrate ECLYFQS | area with substrate EHLYFQS | area with substrate EILYFQS | area with substrate EKLYFQS | area with substrate EQLYFQS | area with substrate ESLYFQS | area with substrate EVLYFQS | area with substrate ELLYFQS | area with substrate EMLYFQS | area with substrate ERLYFQS
W203Q | 0.0562 | 0.0571 | 0.04 | 0.0687 | 0.0708 | 0.0727 | 0.0688 | – | – | –
N206Q | 0.0655 | – | 0.0736 | – | 0.109 | 0.0987 | 0.0922 | 0.0969 | 0.0978 | 0.0908
N206V | 0.0992 | – | 0.0646 | – | 0.134 | – | – | 0.0837 | 0.0383 | –
N206W | 0.0588 | – | 0.0563 | 0.0809 | 0.0475 | 0.09 | – | 0.106 | 0.0907 | 0.0917
S209Q | 0.137 | – | 0.0871 | 0.0451 | 0.0999 | 0.118 | – | – | 0.115 | –
W212Y | 0.089 | – | 0.0991 | 0.119 | – | 0.0962 | 0.0758 | – | 0.136 | –
G213E | 0.0596 | – | – | – | 0.0642 | 0.0714 | – | – | – | –
G213I | 0.0502 | – | 0.0394 | – | 0.0553 | 0.0464 | – | – | 0.0807 | –
G213P | 0.071 | 0.0623 | 0.0768 | – | 0.0507 | – | – | – | – | 0.0622
G214T | 0.0831 | 0.096 | – | 0.0725 | – | 0.0561 | 0.0753 | 0.0986 | – | –
H215T | 0.0551 | – | 0.0662 | – | – | – | 0.0618 | – | – | –
K216E | 0.0828 | – | 0.0713 | – | – | – | – | – | – | –
F218E | 0.0877 | 0.114 | 0.0807 | 0.0991 | – | 0.0897 | – | 0.075 | 0.0841 | 0.1
V220F | 0.101 | 0.119 | – | – | 0.125 | 0.103 | 0.14 | 0.0819 | 0.0984 | 0.123
V220K | 0.095 | 0.0984 | – | 0.109 | 0.12 | 0.0895 | – | 0.107 | – | 0.127
Q227H | 0.0857 | 0.104 | 0.0693 | – | – | 0.105 | 0.0798 | 0.0842 | 0.112 | –
E231K | 0.102 | – | – | – | 0.119 | – | 0.0958 | – | – | 0.122
E231Y | 0.0741 | – | 0.0916 | – | 0.0791 | – | 0.076 | 0.086 | 0.136 | 0.0866

Variant | area with substrate ECLYFQS | area with substrate EHLYFQS | area with substrate EILYFQS | area with substrate EKLYFQS | area with substrate EQLYFQS | area with substrate ESLYFQS | area with substrate EVLYFQS | area with substrate ELLYFQS | area with substrate EMLYFQS | area with substrate ERLYFQS
T233V | 0.0876 | – | – | – | 0.124 | 0.0957 | 0.0849 | 0.0926 | – | 0.0945
L235V | 0.168 | – | 0.0803 | – | 0.109 | – | – | – | – | 0.0939
F6C | – | – | – | – | – | – | 0.0754 | – | – | –
Y34M | – | 0.108 | 0.0965 | 0.0902 | – | 0.0869 | 0.0818 | 0.0812 | 0.109 | –
H47T | – | 0.0632 | 0.0462 | 0.0624 | 0.0508 | 0.063 | 0.0586 | 0.0513 | 0.0516 | 0.0811
F49N | – | 0.0628 | 0.0673 | – | – | – | 0.0648 | – | 0.0497 | 0.0524
L61I | – | 0.125 | 0.0889 | – | 0.112 | 0.156 | – | – | – | 0.106
G63P | – | 0.0817 | 0.0531 | 0.0713 | 0.0604 | 0.073 | 0.0664 | – | 0.0861 | 0.0589
T72L | – | – | 0.0661 | – | – | – | 0.12 | – | – | –
P89K | – | – | 0.0758 | 0.0777 | – | 0.0743 | 0.101 | – | – | 0.0772
P96D | – | 0.0853 | 0.105 | 0.117 | 0.131 | 0.111 | 0.124 | – | – | –
R106C | – | 0.108 | 0.0983 | – | 0.118 | 0.0871 | 0.107 | – | 0.119 | –
A170D | – | – | 0.0456 | – | – | – | 0.0633 | – | 0.0559 | 0.085
S171W | – | – | 0.0682 | – | 0.0489 | 0.0687 | – | – | 0.0587 | –
M188F | – | – | 0.0861 | – | – | 0.0045 | 0.105 | – | 0.0807 | –
L190V | – | 0.125 | – | 0.0667 | 0.14 | 0.121 | 0.065 | – | – | –
L191N | – | 0.0601 | – | 0.0527 | – | – | 0.0495 | – | – | 0.0551
S201M | – | – | 0.09 | – | 0.106 | 0.0918 | 0.0895 | 0.113 | 0.123 | 0.0938

Same assay, conditions: temperature: 34 °C; time window: 0-4 h after rhamnose induction

Variant | area with substrate EDLYFQS | area with substrate EFLYFQS | area with substrate EPLYFQS | area with substrate EELYFQS | area with substrate EGLYFQS | area with substrate EWLYFQS | area with substrate EYLYFQS | area with substrate ETLYFQS
N206V | 0.132 | 0.0655 | 0.0741 | – | – | – | – | –
N206W | 0.0846 | 0.0773 | 0.0906 | 0.102 | 0.0801 | 0.0761 | 0.0823 | –
S209Q | 0.159 | – | 0.128 | – | – | 0.0994 | – | –
W212Y | – | – | 0.156 | – | – | – | 0.174 | –
G213E | – | 0.0697 | – | – | 0.0767 | – | 0.057 | 0.0651
G213I | 0.0826 | 0.0559 | 0.0488 | 0.0632 | 0.0577 | 0.0471 | – | 0.0526
G213P | – | 0.0638 | 0.0611 | – | – | – | – | –
G214T | 0.119 | – | 0.129 | 0.102 | – | 0.0752 | – | –
H215T | 0.111 | – | – | – | – | 0.0643 | 0.0924 | –
F218E | 0.103 | 0.0724 | – | 0.0901 | 0.089 | 0.078 | – | –
V220F | 0.102 | 0.103 | – | 0.121 | 0.099 | – | – | 0.0949
V220K | – | 0.123 | 0.144 | 0.119 | – | 0.0797 | 0.0944 | –
Q227H | – | 0.113 | 0.137 | – | 0.0949 | – | – | 0.0945
E231K | – | – | 0.135 | 0.144 | – | – | – | –
E231Y | 0.105 | – | 0.0753 | – | 0.0912 | 0.0787 | 0.0796 | –
T233V | 0.0963 | – | – | – | – | 0.11 | – | –
L235V | – | – | 0.102 | 0.0917 | – | – | – | 0.0962

Variant | area with substrate EDLYFQS | area with substrate EFLYFQS | area with substrate EPLYFQS | area with substrate EELYFQS | area with substrate EGLYFQS | area with substrate EWLYFQS | area with substrate EYLYFQS | area with substrate ETLYFQS
F6C | 0.0863 | – | 0.0959 | – | 0.07 | – | – | –
Y34M | 0.12 | 0.11 | 0.1 | – | – | – | – | –
H47T | 0.0549 | 0.0676 | 0.0564 | – | 0.0695 | – | 0.0554 | 0.0614
F49N | 0.0717 | – | 0.0342 | 0.0552 | – | 0.0454 | 0.0535 | 0.0512
L61I | 0.121 | – | – | 0.121 | – | 0.096 | – | 0.126
G63P | 0.0799 | – | – | 0.065 | 0.0685 | 0.0416 | 0.0628 | 0.082
T72L | 0.112 | – | – | – | 0.0764 | 0.146 | – | –
Q75L | 0.155 | – | – | 0.126 | – | – | – | –
P89K | 0.0931 | 0.0889 | 0.0693 | – | – | – | – | –
P96D | 0.122 | – | – | 0.174 | 0.092 | 0.0972 | 0.118 | –
R106C | 0.102 | 0.106 | – | 0.0849 | 0.0737 | – | 0.119 | –
A170D | 0.0663 | – | – | – | – | – | – | –
S171W | 0.0659 | – | – | – | – | 0.0633 | – | 0.0461
M188F | 0.143 | – | – | – | – | – | 0.126 | –
L190V | 0.117 | – | 0.129 | 0.175 | – | 0.095 | 0.106 | 0.127
L191N | 0.0572 | – | – | – | 0.0519 | 0.0575 | – | –
S201M | 0.114 | – | 0.13 | – | 0.0704 | 0.0796 | – | –
